Data on 90 compounds can be found in PubChem BioAssay AID463173 (ICCB-Longwood Screening Facility, Harvard Medical School, 2010).

SMILES strings stand for the structures. The whole screen tested about 52,000 compounds, of which about 1,700 (3.3%) were called active. Cut-off read from the data, not from the text of the source: active = survival mostly below about 52% (no sharp cut-off); inactive = mostly above about 56%. The list shows a part of the results.

The experiment concerns Wild type. The experiment is described as follows: S. aureus survival, RN4220 and DeltatarO strains – OD600, teichoic acid synthesis inhibitors, primary screen (AID 463173). The conditions noted are these: S. aureus RN4220 wild type/DeltatarO growth, OD600, 18 h, hits give low values, screened at 18.75 µg/mL (by protocol).
Regarding `CCOC(=O)c1c(-c2ccccc2)csc1NC(=O)c1cc(-c2cccc(Cl)c2)on1`, the survival was inactive: 90%.

For `Cc1ccc(C)c(N2CCN(S(=O)(=O)c3ccc4c(c3)n(C)c(=O)c(=O)n4C)CC2)c1`, the survival was inactive: 80%.

Consider `O=C(NCc1ccccc1)c1ccc(Cn2c(=O)c3cccn3c3cccnc32)cc1`, for which the survival was inactive: 112%.

With `O=C(Nc1cc(-c2nc3cc(Cl)ccc3o2)ccc1Cl)c1cc2ccccc2o1`, the survival is inactive: 96%.

`CN(Cc1ccccc1)S(=O)(=O)c1ccc(F)c(C(=O)Nc2cc(Cl)cc(Cl)c2)c1`: the survival was inactive: 76%.

For `CC1(C)CC(=O)c2cc(-c3nc(-c4ccc(Cl)cc4)cs3)c(=O)n(-c3cccc(F)c3)c2C1`, the survival was inactive: 93%.

In the case of `COc1cc(C)ccc1OCCSc1nc2ccc(NC(=O)c3ccc(C)cc3)cc2s1`, the survival is inactive: 90%.

Regarding `CCCNC(=O)C1CCN(Cc2cc3ccccc3n2Cc2ccccc2)CC1`, the survival is inactive: 68%.

For the compound `CC(=O)c1cccc(Nc2nn(-c3ccc(OC(F)(F)F)cc3)nc2C(C)=O)c1`, the survival was inactive: 89%.

`COc1ccc(CNC(=O)CCc2c(C)nc3nc(CNC(=O)OC(C)(C)C)nn3c2C)cc1`: the survival is inactive: 77%.

In the case of `Cn1cc(C(=O)NCCc2ccccc2)c(=O)c2cc(S(=O)(=O)N3CCCCCC3)ccc21`, the survival was inactive: 87%.

Turning to `Cc1c(C(=O)N(Cc2ccc(N(C)C)cc2)Cc2ccco2)oc2cc(Br)ccc12`, the survival is inactive: 87%.

`COc1ccc(-c2ccc(CCC(=O)O)n2CC(=O)Nc2cccc(Cl)c2C)cc1`: the survival is inactive: 81%.

On to `O=C(CN1C(=O)CC(c2ccco2)Sc2ccccc21)Nc1ccc(Br)cc1` (stereo not given), for which the survival is inactive: 91%.

As for `COc1ccccc1-c1noc(-c2ccc(NCc3cccnc3)c([N+](=O)[O-])c2)n1`, the survival is inactive: 92%.

With `CCc1cc2c(cc3c(=O)n(CC(=O)NC4CCCCC4)ncn32)s1`, the survival was inactive: 79%.

In the case of `Cc1ccc(OCC(=O)Nc2ccc3[nH]c(=O)sc3c2)cc1`, the survival is inactive: 93%.

`COc1ccc(-n2ccn(Cc3ccccc3C)c(=O)c2=O)cc1`: the survival is inactive: 115%.

In the case of `Cc1cc(C)cc(NC(=O)C(=O)NCC(c2cccnc2)N2CCN(c3ccccc3)CC2)c1` (stereo not given), the survival is inactive: 49%.

In the case of `CCCCn1cc(S(=O)(=O)c2ccc(CC)cc2)c(=O)c2cc(F)c(N3CCOCC3)cc21`, the survival was inactive: 73%.

On to `CCOc1ccc(N(C(C)C(=O)NCCSc2ccc(C)cc2)S(C)(=O)=O)cc1` (stereo not given), for which the survival was inactive: 65%.

Consider `COc1cccc(C(c2sc3nc(-c4ccco4)nn3c2O)N2CCN(c3ccccc3F)CC2)c1` (stereo not given), for which the survival is inactive: 81%.

Turning to `COc1ccc(S(=O)(=O)N(C)C2CCCCC2)cc1`, the survival is inactive: 110%.

Take `CC[n+]1c(C)sc2sc3ccccc3c21`: the survival was inactive: 98%.

On to `COc1ccc(-c2cc(C(=O)NCCc3ccc(OC)c(OC)c3)c3ccccc3n2)cc1`, for which the survival was inactive: 68%.

With `COc1ccc(NC(=O)C(C)Sc2cc(-c3ccccc3)nc(C)n2)cc1Cl` (stereo not given), the survival was inactive: 81%.

Regarding `CCNC(=S)N1CCC(C(N)=O)CC1`, the survival was inactive: 100%.

Regarding `O=C1CN(C(=O)Nc2ccccc2Cl)C(c2ccccc2)c2c(sc3c2CCCC3)N1` (stereo not given), the survival is inactive: 78%.

Regarding `Cc1nn(-c2ccccc2)c2c1N(CCCC(=O)NCc1ccccc1)C(=O)CS2`, the survival was inactive: 78%.

Take `COc1ccc(-c2noc(-c3ccc(NC4CCCCC4)c([N+](=O)[O-])c3)n2)cc1`: the survival was inactive: 82%.

Consider `CCc1nn2c(=O)cc(COC(=O)c3ccc(NC(=O)C4CCCCC4)cc3)nc2s1`, for which the survival is inactive: 68%.

Turning to `CCC1CCc2nc3sc(C(=O)Nc4cccc(C(F)(F)F)c4)c(N)c3cc2C1` (stereo not given), the survival is inactive: 141%.

In the case of `O=C(COc1ccc(F)cc1)Nc1ccccc1OCc1cc(=O)n2ccccc2n1`, the survival is inactive: 71%.

For `COc1ccc(S(=O)(=O)Nc2cc3c(cc2N2CCOCC2)n(C)c(=O)n3C)cc1`, the survival was inactive: 122%.

With `COc1cccc(NC(=O)c2ccc3[nH]c(C)cc(=O)c3c2)c1`, the survival was inactive: 116%.

With `O=C(CCn1c(=O)c2cccn2c2cccnc21)NCc1ccccc1F`, the survival was inactive: 111%.

For `CCCc1cc(=O)oc2cc(C)c3c(C(C)(C)C)coc3c12`, the survival was inactive: 86%.

For `Oc1ccc(-c2cccc(-c3ccc(O)cc3)c2)cc1`, the survival is inactive: 101%.

For the compound `COC(=O)c1ccc(Cn2nc(-c3ccc(C)cc3)ccc2=O)cc1`, the survival is inactive: 145%.

As to `Nc1ccccc1N1CCN(C(=O)c2ccccc2)CC1`, the survival was inactive: 98%.

For `Cn1c(SCc2ccccc2Cl)nc2c([nH]c3ccccc32)c1=O`, the survival was inactive: 65%.

On to `CCc1cccc(NC(=O)c2oc3ccc4c(c3c2C)C(=O)CC(C)(C)O4)c1`, for which the survival is inactive: 91%.

In the case of `COc1cccc(CN2C(=O)C3(SCC(=O)N3c3ccc(C(C)C)cc3)c3ccccc32)c1` (stereo not given), the survival is inactive: 66%.

For `CCOc1ccc(C(=O)Nc2ccc3oc(-c4ccc(Br)cc4)nc3c2)cc1`, the survival was inactive: 75%.

Regarding `COc1cccc(CNS(=O)(=O)c2ccc(-c3cc(C(F)(F)F)on3)s2)c1`, the survival was inactive: 87%.

`O=C(c1ccc2c(c1)OCCO2)N(Cc1cccnc1)c1nc2c(F)cc(F)cc2s1`: the survival is inactive: 75%.

Consider `CCOC(=O)c1ccc(N2C(=O)Cc3cc(OCC)c(OCC)cc3C2c2ccccc2)cc1` (stereo not given), for which the survival was inactive: 90%.

On to `COc1ccc(N(CC(=O)Nc2cc(Cl)ccc2C)S(=O)(=O)c2c(C)noc2C)cc1`, for which the survival was inactive: 82%.

For `CCOc1ccc(NS(=O)(=O)c2ccc3[nH]cc(C(=O)N4CCCCCC4)c(=O)c3c2)cc1`, the survival is inactive: 122%.

`COc1ccc(Cc2nc3ccc(C(=O)NCCCN4CCN(C)CC4)cc3o2)cc1`: the survival is inactive: 135%.

Take `Cc1ccccc1-c1nc(SCC(=O)NCC2CCCO2)c2c(=O)n(C)c(=O)n(C)c2n1` (stereo not given): the survival is inactive: 77%.

Regarding `Cc1cccc(CCNC(=O)CCc2c(C)nc3ncnn3c2C)c1`, the survival is inactive: 71%.

For the compound `COc1ccc(N2CCN(C(=O)c3sc4nc5n(c(=O)c4c3C)CCC5)CC2)cc1`, the survival was inactive: 120%.

On to `COCCNC(=O)c1ccc2c(=O)n(CCOC)c(SCC(=O)c3c[nH]c4ccccc34)nc2c1`, for which the survival was active: -1%.

Regarding `CCOC(=O)c1c(NC(=O)c2cc3nc(-c4ccccc4)cc(C(F)(F)F)n3n2)sc2c1CCC(C)C2` (stereo not given), the survival is inactive: 65%.

For `O=C1CSC(=O)N1Cc1cc2c(cc1Cl)OCO2`, the survival is inactive: 100%.

Take `CCCNC(=O)c1cnc2sc(N3CCCCCC3)nn2c1=O`: the survival is inactive: 83%.

In the case of `Cc1ccccc1C(=O)OCc1cc(=O)n2c(C)csc2n1`, the survival was inactive: 129%.

Take `CCc1nn(CC(=O)NCc2ccc(OC)c(OC)c2)c(=O)c2cc3sc(C)cc3n12`: the survival was inactive: 72%.

`Cn1c(CN2CCOCC2)nnc1SCC(N)=O`: the survival was inactive: 114%.

In the case of `CCOc1ccc(C(=O)Nc2ccccc2OCc2cc(=O)n3ccccc3n2)cc1`, the survival is inactive: 131%.

In the case of `Cc1cc(C(=O)Nc2cccc(F)c2)c2c(C)nn(-c3cccc(Cl)c3C)c2n1`, the survival is inactive: 76%.

As to `COc1ccccc1OCCCCn1c(-c2ccc(Cl)cc2)nc2ccccc2c1=O`, the survival was inactive: 52%.

Turning to `Brc1ccc(NCc2ccco2)cc1`, the survival was inactive: 124%.

As for `CN(C)c1ccc(C(=O)Nc2cccc(-c3nc4cccnc4s3)c2)cc1`, the survival is inactive: 68%.

Turning to `CCc1ccc(-c2cn3c(n2)SCC3)cc1`, the survival was inactive: 111%.

`COc1ccc(CCNC(=O)c2nc(SCc3ccc(C)cc3)ncc2Cl)cc1OC`: the survival was inactive: 97%.

For the compound `CCOC(=O)Cn1c(=O)n(-c2ccccc2OC)c2nc(-c3ccccc3F)nc(C(N)=O)c21`, the survival was inactive: 71%.

Take `Cc1ccc(CCNC(=O)c2cc(C)nc3c2c(C)nn3-c2ccc(C)cc2)cc1`: the survival was inactive: 19%.

Turning to `O=C(Nc1ccc(C(F)(F)F)cc1)C1CCN(c2cnccn2)CC1`, the survival is inactive: 89%.

For `Cc1ccc2cc3c(N)c(-c4nnc(-c5ccccc5)o4)sc3nc2c1`, the survival is inactive: 110%.

In the case of `COc1cccc2cc(-c3csc(-c4ccc(Cl)cc4)n3)c(=O)oc12`, the survival was inactive: 125%.

Turning to `Cc1cc(C)c(C#N)c(S(C)(=O)=O)n1`, the survival is inactive: 116%.

Consider `COc1cccc(Cn2c(SCC(=O)N(C)c3ccccc3)nc3ccccc32)c1`, for which the survival was active: -6%.

As for `CCc1ccc(-n2c(SCc3ccccc3C)nc3[nH]ncc3c2=O)cc1`, the survival is inactive: 83%.

As for `COC(=O)c1ccc(Cn2c(SCc3ccccc3)nc3ccncc32)cc1`, the survival was inactive: 66%.

For `Cc1ccc(-c2nc(CS(=O)(=O)CC(=O)NCc3ccc(Cl)cc3)c(C)o2)cc1`, the survival was inactive: 92%.

Consider `Cc1ccccc1CNC(=O)c1ccc(CSc2nc3cccnc3n2Cc2ccccc2)cc1`, for which the survival is inactive: 47%.

In the case of `O=C(CN1CCC(C(=O)c2ccc(F)cc2)CC1)Nc1ccccc1`, the survival was inactive: 100%.

Turning to `CCc1c(C)c2ccc(O)c(CN3CCN(c4ccc(OC)cc4)CC3)c2oc1=O`, the survival is inactive: 79%.

Turning to `CC1CCC(Nc2nnnn2-c2ccccc2)CC1` (stereo not given), the survival was inactive: 109%.

Regarding `O=C(CN1CCSc2ccccc21)N1CCCCC1`, the survival was inactive: 77%.

`Cc1ccc(CCNC(=O)c2ccc(CNS(=O)(=O)c3ccccc3)cc2)cc1`: the survival is inactive: 92%.

On to `CCOc1ccccc1NC(=O)Cn1c(=O)n(-c2ccc(F)cc2)c(=O)c2c3c(sc21)CN(C(C)=O)CC3`, for which the survival was inactive: 114%.

Take `CCCN(C(=O)COc1cc(=O)n(CC)c2ccccc12)c1ccc(C(C)C)cc1`: the survival is active: -7%.

As to `CCc1ccc(-n2nc(C)c3c(C(=O)Nc4cc(C)c(Cl)cc4OC)cc(C)nc32)cc1`, the survival is inactive: 80%.

Turning to `CCc1ccc(-c2nn(CC(=O)NCc3ccccc3)c3c2cnc2ccc(C)cc23)cc1`, the survival is inactive: 73%.

Consider `CC(C)c1ccc(NC(=O)CCS(=O)(=O)c2cccc3nonc23)cc1`, for which the survival is inactive: 98%.

As to `CC(=O)Nc1ccc(NC(=O)c2cc3sccc3n2Cc2ccc(Cl)cc2)cc1`, the survival is inactive: 91%.

For the compound `Cc1cc(C)cc(NC(=O)Nc2ccccc2OCc2cc(=O)n3ccccc3n2)c1`, the survival is inactive: 72%.
